Reference: PubChem BioAssay AID651820 (National Center for Advancing Translational Sciences (NCATS), 2012)
Several values for one entry are separate records, joined by “and”; a condition that tells them apart may be missing. Equal values may be shown once. About 12,000 (3.5%) of roughly 340,000 compounds were called active. The inconclusive results got no clear call from the source; some entries with a clear call stand among them for comparison. Calls come from the whole dose curve; as a rule, active = well fitted inhibition curve with a large enough effect; inconclusive = small, poorly fitted or top-dose-only effect, or another doubt; inactive = no such curve, though single readings can be large or run the other way. Where the call is inconclusive, the potency comes from a doubtful curve fit.

Assay: qHTS Assay for Inhibitors of Hepatitis C Virus (HCV)
Details: Huh7.5.1 HCVcc-Cre (HCVcc is cell-culture hepatitis C virus) infection, luciferase reporter, 44 h; series mostly up to 41.8 µM
Procedure, shortened: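 Cells (1,000/well) were plated 4 h before compound, then infected with HCVcc-Cre virus (~0.5 moi). After 44 h further culture, infection was read as luciferase luminescence following a 15 min substrate incubation at room temperature.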
Potency is the fitted concentration of half-maximal effect; tags give direction and shape of the fitted curve.

Row | SMILES | Potency
1 | O=C(NCc1ccccc1)C(=O)Nc1nc(C23CC4CC(CC(C4)C2)C3)cs1 | inconclusive: 31.6 µM [inhibitor, single point]
2 | O=C(O)CC1(CC(=O)N2CCOCC2)CCCC1 | inactive
3 | CCCOC(=O)c1ccc(NC(=O)c2cccc(S(=O)(=O)N3CCN(C(C)=O)CC3)c2)cc1 | inconclusive: 11.2 µM [inhibitor, partial curve]
4 | O=C(Nc1ccc(S(=O)(=O)N2CCCC2)cc1)c1ccc(CN2CCc3ccccc3C2)cc1 | active: 7.08 µM
5 | O=C(Nc1nc2c(s1)CCCC2)C1COc2ccccc2O1 (stereo not given) | inconclusive: 11.2 µM [inhibitor, partial curve]
6 | Cc1ccc(OCCCCN2CCC(C)CC2)cc1 | inconclusive: 8.91 µM [inhibitor, partial curve]
7 | COc1ccc(CCNC(=S)NC(=O)c2c(-c3ccccc3Cl)noc2C)cc1OC | inconclusive: 31.6 µM [inhibitor, single point]
8 | CCOc1ccc(N(CC(=O)NCc2ccco2)S(C)(=O)=O)cc1 | inactive
9 | CCC(c1nnnn1Cc1ccc2c(c1)OCO2)N1CCN(c2ccc(OC)cc2)CC1 (stereo not given) | inconclusive: 31.6 µM [inhibitor, single point]
10 | O=C(CCSc1nc(-c2ccco2)cc(C(F)(F)F)n1)NCCc1ccccc1 | inconclusive: 12.6 µM [inhibitor, single point] and inconclusive: 5.62 µM [inhibitor, full curve]
11 | O=C(c1ccc(Cn2c(=O)[nH]c3ccccc3c2=O)cc1)N1CCN(c2ccc(Cl)cc2)CC1 | active: 11.2 µM
12 | COc1ccc(OC)c(NC(=O)CN2c3cccc4cccc(c34)S2(=O)=O)c1 | inconclusive: 31.6 µM [inhibitor, single point]
13 | Cn1c(=O)c2c(SCc3ccccc3)nc(-c3ccco3)nc2n(C)c1=O | inactive
14 | CC(=O)Nc1ccc(/C=N/N2CCCCC2)cc1 | inactive
15 | Cc1ccccc1-n1c(C)cc(/C=N/NC(=O)c2ccc(CN3CCOCC3)cc2)c1C | inconclusive: 1.58 µM [inhibitor, full curve]
16 | O=C(Nc1ccn(Cc2c(F)c(F)cc(F)c2F)n1)c1ccc(COc2ccc(Cl)cc2Cl)o1 | active: 12.6 µM
17 | CCN(CC(=O)NCc1ccc(Cl)cc1)C(=O)CSc1cccc(C(F)(F)F)c1 | inconclusive: 22.4 µM [inhibitor, partial curve]
18 | O=C(O)CCCC(=O)Nc1ccc(OCc2nc3ccccc3s2)cc1 | inactive
19 | O=C(NC(=S)Nc1ccccn1)c1ccco1 | inactive
20 | COc1cc(C(C(=O)NC2CCCC2)N(Cc2ccco2)C(=O)c2snc(C(N)=O)c2N)cc(OC)c1OC (stereo not given) | inactive
21 | CCc1c(C)nc2ncnn2c1N1CCCC(C(=O)NCCc2ccc(OC)cc2)C1 (stereo not given) | inconclusive: 11.2 µM [inhibitor, single point]
22 | C/C(=N/NC(=O)c1ccco1)c1ccc(NC(=O)c2ccc(F)cc2)cc1 | inconclusive: 8.91 µM [inhibitor, partial curve]
23 | CC(C)(C)OC(=O)N(CCc1ccccc1)Cc1cccc(OCc2cccc(NC(=O)c3ccccc3)c2)c1 | inconclusive: 31.6 µM [inhibitor, single point]

Row | SMILES | Potency
24 | COc1ccc(C(=O)Nc2ccccc2Cc2ccccc2)c(OC)c1 | active: 10 µM
25 | CN(c1ccccc1)S(=O)(=O)c1ccc(C(=O)NCc2ccccc2CN2CCCC2)cc1 | active: 10 µM
26 | O=C(Nc1c(C(=O)N2CCOCC2)oc2ccccc12)c1ccccc1Cl | inconclusive: 3.55 µM [inhibitor, full curve, poor fit]
27 | CC1(c2ccc(Cl)cc2)NC(=O)N(CC(=O)N2CCCC2)C1=O (stereo not given) | active: 15.8 µM
28 | N#Cc1nc(-c2ccc(OCc3ccccc3)cc2)oc1NCCCN1CCOCC1 | inconclusive: 31.6 µM [inhibitor, single point]
29 | CCn1c(SCC(=O)c2ccc(O)c(O)c2)nnc1-c1ccccc1 | inconclusive: 31.6 µM [inhibitor, single point]
30 | COc1ccc2oc(C(=O)OCC(=O)N(Cc3ccccc3)C(C)(C)C)c(C)c2c1 | inconclusive: 22.4 µM [inhibitor, single point]
31 | CC(C)OC(=O)c1ccc(N2CCN(c3ccc(F)cc3)CC2)nc1 | inconclusive: 22.4 µM [inhibitor, single point]
32 | Cc1cc(NC(=O)c2ccc(COc3ccc(Cl)c(C)c3)o2)no1 | inactive
33 | Cc1c(Br)cc(C(=O)NCc2ccco2)c(C)c1C | inactive
34 | CCc1nc2sc3c(c2c(=S)[nH]1)CC(C)(C)OC3 | inconclusive: 6.31 µM [inhibitor, partial curve]
35 | CNC(=O)c1sccc1SCc1c(Cl)cccc1Cl | inactive
36 | CCOC(=O)C1=C(c2ccccc2)O/C(=C(/C(=O)OC)C(F)(F)F)S1 | inconclusive: 8.91 µM [inhibitor, partial curve]
37 | Cn1c(Cl)c(/C=N/OC(=O)c2ccccc2Cl)c2ccccc21 | inconclusive: 2.24 µM [inhibitor, full curve]
38 | Cc1cccc(N2CCN(C(=O)c3ccccc3SCC(=O)N3CCCC3)CC2)c1C | inconclusive: 31.6 µM [inhibitor, single point]
39 | CN(C)C(CNC(=O)c1ccc(C2SCCS2)cc1)c1ccccc1 (stereo not given) | inactive
40 | C=CCn1c(SCc2nc3ccccc3c(=O)[nH]2)nc2sc3c(c2c1=O)CCCC3 | inactive
41 | Cc1ccc(NC(=O)N2Cc3ccccc3CC2C(=O)NC(C)(C)C)cc1 (stereo not given) | inconclusive: 5.62 µM [inhibitor, single point]
42 | CC(=O)c1ccc2noc(-c3cccc(F)c3)c2c1 | active: 2.24 µM
43 | Cc1cccc(N2CCN(C(=O)COc3ccc4c(C)cc(=O)oc4c3C)CC2)c1C | active: 10 µM
44 | Cc1ccc(S(=O)(=O)N2CCC(=O)N(C(COCc3ccc(Cl)cc3)Cc3ccccc3)CC2)cc1 (stereo not given) | inconclusive: 22.4 µM [inhibitor, single point]
45 | Cc1nc(SCC(=O)N2CCc3ccccc3C2)c2c(C)c(C)sc2n1 | inconclusive: 31.6 µM [inhibitor, single point]
